{"source": "a collection of fitness landscapes (doi:10.1126/science.1257360)", "parents": {"B1": {"name": "PhoQ; a variant is named by its letters at X, in order, P23837 (parent)", "chain": "MKKLLRLFFPLSLRVRFLLATAAVVLVLSLAYGMVALIGYSVSFDKTTFRLLRGESNLFYTLAKWENNKLHVELPENIDKQSPTMTLIYDENGQLLWAQRDVPWLMKMIQPDWLKSNGFHEIEADVNDTSLLLSGDHSIQQQLQEVREDDDDAEMTHSVAVNVYPATSRMPKLTIVVVDTIPVELKSSYMVWSWFIYVLSANLLLVIPLLWVAAWWSLRPIEALAKEVRELEEHNRELLNPATTRELTSLVRNLNRLLKSERERYDKYRTTLTDLTHSLKTPLXXLQXXLRSLRSEKMSVSDAEPVMLEQISRISQQIGYYLHRASMRGGTLLSRELHPVAPLLDNLTSALNKVYQRKGVNISLDISPEISFVGEQNDFVEVMGNVLDNACKYCLEFVEISARQTDEHLYIVVEDDGPGIPLSKREVIFDRGQRVDTLRPGQGVGLAVAREITEQYEGKIVAGESMLGGARMEVIFGRQHSAPKDE"}}, "note": "This is one part of the list.", "data": [{"variants_of": "B1", "assay": "enrichment ratio after two sorts for PhoP signalling (ratio (wild type AVST 3.29)); higher = more functional", "details": "with PhoP (E. coli)", "values": [{"variant": "RHYW", "enrichment ratio": "≤ 0.25"}, {"variant": "VGRQ", "enrichment ratio": "≤ 0.25"}, {"variant": "TMPW", "enrichment ratio": "≤ 0.25"}, {"variant": "KDRQ", "enrichment ratio": "≤ 0.25"}, {"variant": "DDHA", "enrichment ratio": "≤ 0.25"}, {"variant": "YHEH", "enrichment ratio": "≤ 0.25"}, {"variant": "GTDC", "enrichment ratio": "≤ 0.25"}, {"variant": "KAEF", "enrichment ratio": "≤ 0.25"}, {"variant": "PPQG", "enrichment ratio": "≤ 0.25"}, {"variant": "DQSK", "enrichment ratio": "≤ 0.25"}, {"variant": "NPRF", "enrichment ratio": "≤ 0.25"}, {"variant": "WAFS", "enrichment ratio": "≤ 0.25"}, {"variant": "KSDM", "enrichment ratio": "≤ 0.25"}, {"variant": "FTRT", "enrichment ratio": "≤ 0.25"}, {"variant": "IKSI", "enrichment ratio": "≤ 0.25"}, {"variant": "VNIP", "enrichment ratio": "≤ 0.25"}, {"variant": "EHPT", "enrichment ratio": "≤ 0.25"}, {"variant": "CTLT", "enrichment ratio": "≤ 0.25"}, {"variant": "SNRA", "enrichment ratio": "≤ 0.25"}, {"variant": "LPEH", "enrichment ratio": "≤ 0.25"}, {"variant": "DCWA", "enrichment ratio": "≤ 0.25"}, {"variant": "HITN", "enrichment ratio": "≤ 0.25"}, {"variant": "LCWR", "enrichment ratio": "≤ 0.25"}, {"variant": "LADR", "enrichment ratio": "≤ 0.25"}, {"variant": "HILV", "enrichment ratio": "≤ 0.25"}, {"variant": "MGMR", "enrichment ratio": "≤ 0.25"}, {"variant": "HEKR", "enrichment ratio": "≤ 0.25"}, {"variant": "QHVC", "enrichment ratio": "≤ 0.25"}, {"variant": "DWCK", "enrichment ratio": "≤ 0.25"}, {"variant": "RDGT", "enrichment ratio": "≤ 0.25"}, {"variant": "TYHR", "enrichment ratio": "≤ 0.25"}, {"variant": "ARKC", "enrichment ratio": "≤ 0.25"}, {"variant": "SFTK", "enrichment ratio": "≤ 0.25"}, {"variant": "SQKT", "enrichment ratio": "≤ 0.25"}, {"variant": "RNKP", "enrichment ratio": "≤ 0.25"}, {"variant": "YEIH", "enrichment ratio": "≤ 0.25"}, {"variant": "DGHT", "enrichment ratio": "≤ 0.25"}, {"variant": "MIPW", "enrichment ratio": "≤ 0.25"}, {"variant": "WTGM", "enrichment ratio": "≤ 0.25"}, {"variant": "DITA", "enrichment ratio": "≤ 0.25"}, {"variant": "DQVL", "enrichment ratio": "≤ 0.25"}, {"variant": "IDDT", "enrichment ratio": "≤ 0.25"}, {"variant": "TDVM", "enrichment ratio": 4.33}, {"variant": "MLGW", "enrichment ratio": "≤ 0.25"}, {"variant": "DYLA", "enrichment ratio": "≤ 0.25"}, {"variant": "TTPK", "enrichment ratio": "≤ 0.25"}, {"variant": "LCSA", "enrichment ratio": "≤ 0.25"}, {"variant": "PRWI", "enrichment ratio": "≤ 0.25"}, {"variant": "VSQG", "enrichment ratio": "≤ 0.25"}, {"variant": "YEWG", "enrichment ratio": "≤ 0.25"}, {"variant": "FFRP", "enrichment ratio": "≤ 0.25"}, {"variant": "PLTF", "enrichment ratio": "≤ 0.25"}, {"variant": "QFNE", "enrichment ratio": "≤ 0.25"}, {"variant": "TFSS", "enrichment ratio": 11.4}, {"variant": "ACPR", "enrichment ratio": "≤ 0.25"}, {"variant": "WLAI", "enrichment ratio": "≤ 0.25"}, {"variant": "RIGM", "enrichment ratio": "≤ 0.25"}, {"variant": "NRDL", "enrichment ratio": "≤ 0.25"}, {"variant": "FLED", "enrichment ratio": "≤ 0.25"}, {"variant": "EVFD", "enrichment ratio": "≤ 0.25"}, {"variant": "RANI", "enrichment ratio": "≤ 0.25"}, {"variant": "FSVW", "enrichment ratio": "≤ 0.25"}, {"variant": "TIMI", "enrichment ratio": 2.5}, {"variant": "YAIG", "enrichment ratio": "≤ 0.25"}, {"variant": "MGNL", "enrichment ratio": "≤ 0.25"}, {"variant": "PNNV", "enrichment ratio": "≤ 0.25"}, {"variant": "HDEK", "enrichment ratio": "≤ 0.25"}, {"variant": "TAIP", "enrichment ratio": "≤ 0.25"}, {"variant": "MWSR", "enrichment ratio": "≤ 0.25"}, {"variant": "LKCF", "enrichment ratio": "≤ 0.25"}, {"variant": "HFQE", "enrichment ratio": "≤ 0.25"}, {"variant": "KMQC", "enrichment ratio": "≤ 0.25"}, {"variant": "DVKS", "enrichment ratio": "≤ 0.25"}, {"variant": "SHSI", "enrichment ratio": "≤ 0.25"}, {"variant": "YWAW", "enrichment ratio": "≤ 0.25"}, {"variant": "PTTL", "enrichment ratio": "≤ 0.25"}, {"variant": "KDRC", "enrichment ratio": "≤ 0.25"}, {"variant": "DYYN", "enrichment ratio": "≤ 0.25"}, {"variant": "TMHC", "enrichment ratio": "≤ 0.25"}, {"variant": "HFYD", "enrichment ratio": "≤ 0.25"}, {"variant": "SLIL", "enrichment ratio": "≤ 0.25"}, {"variant": "DWDK", "enrichment ratio": "≤ 0.25"}, {"variant": "SPYS", "enrichment ratio": "≤ 0.25"}, {"variant": "VIPV", "enrichment ratio": "≤ 0.25"}, {"variant": "LRSQ", "enrichment ratio": "≤ 0.25"}, {"variant": "KHCV", "enrichment ratio": "≤ 0.25"}, {"variant": "KQDW", "enrichment ratio": "≤ 0.25"}, {"variant": "NEES", "enrichment ratio": "≤ 0.25"}, {"variant": "SIRS", "enrichment ratio": 0.256}, {"variant": "YVTW", "enrichment ratio": "≤ 0.25"}, {"variant": "PGRI", "enrichment ratio": "≤ 0.25"}, {"variant": "KEFF", "enrichment ratio": "≤ 0.25"}, {"variant": "FDHC", "enrichment ratio": "≤ 0.25"}, {"variant": "YCAW", "enrichment ratio": "≤ 0.25"}, {"variant": "YFKL", "enrichment ratio": "≤ 0.25"}, {"variant": "EKFK", "enrichment ratio": "≤ 0.25"}, {"variant": "VWFY", "enrichment ratio": "≤ 0.25"}, {"variant": "RCVP", "enrichment ratio": "≤ 0.25"}, {"variant": "VAAS", "enrichment ratio": "≤ 0.25"}, {"variant": "MMPW", "enrichment ratio": "≤ 0.25"}, {"variant": "VPAE", "enrichment ratio": "≤ 0.25"}, {"variant": "YDQP", "enrichment ratio": "≤ 0.25"}, {"variant": "DGFW", "enrichment ratio": "≤ 0.25"}, {"variant": "TDLR", "enrichment ratio": 2.69}, {"variant": "GRDM", "enrichment ratio": "≤ 0.25"}, {"variant": "HKKL", "enrichment ratio": "≤ 0.25"}, {"variant": "SAAW", "enrichment ratio": 0.78}, {"variant": "YYMA", "enrichment ratio": "≤ 0.25"}, {"variant": "KLYR", "enrichment ratio": "≤ 0.25"}, {"variant": "EIGG", "enrichment ratio": "≤ 0.25"}, {"variant": "FHGI", "enrichment ratio": "≤ 0.25"}, {"variant": "NWIT", "enrichment ratio": "≤ 0.25"}, {"variant": "ALTF", "enrichment ratio": 9.85}, {"variant": "LIAQ", "enrichment ratio": "≤ 0.25"}, {"variant": "TRGI", "enrichment ratio": "≤ 0.25"}, {"variant": "LTPF", "enrichment ratio": "≤ 0.25"}, {"variant": "MCCL", "enrichment ratio": 6.65}, {"variant": "HMGR", "enrichment ratio": "≤ 0.25"}, {"variant": "KVYS", "enrichment ratio": "≤ 0.25"}, {"variant": "IPTG", "enrichment ratio": "≤ 0.25"}, {"variant": "LFQT", "enrichment ratio": "≤ 0.25"}, {"variant": "PHVH", "enrichment ratio": "≤ 0.25"}, {"variant": "FQWQ", "enrichment ratio": "≤ 0.25"}, {"variant": "AGSP", "enrichment ratio": "≤ 0.25"}, {"variant": "VFDI", "enrichment ratio": "≤ 0.25"}, {"variant": "AIVH", "enrichment ratio": 15}, {"variant": "YETP", "enrichment ratio": "≤ 0.25"}, {"variant": "ANHY", "enrichment ratio": "≤ 0.25"}, {"variant": "FWDD", "enrichment ratio": "≤ 0.25"}, {"variant": "FHSI", "enrichment ratio": "≤ 0.25"}, {"variant": "IKFR", "enrichment ratio": "≤ 0.25"}, {"variant": "VFWH", "enrichment ratio": "≤ 0.25"}, {"variant": "SPIY", "enrichment ratio": "≤ 0.25"}, {"variant": "VFSD", "enrichment ratio": "≤ 0.25"}, {"variant": "GMLL", "enrichment ratio": 10.2}, {"variant": "QSMN", "enrichment ratio": "≤ 0.25"}, {"variant": "VGMH", "enrichment ratio": "≤ 0.25"}, {"variant": "PDCD", "enrichment ratio": "≤ 0.25"}, {"variant": "QFWI", "enrichment ratio": "≤ 0.25"}, {"variant": "GEIH", "enrichment ratio": 6.91}, {"variant": "QFDD", "enrichment ratio": "≤ 0.25"}, {"variant": "VYIL", "enrichment ratio": "≤ 0.25"}, {"variant": "TSLH", "enrichment ratio": 9.91}, {"variant": "GTRW", "enrichment ratio": "≤ 0.25"}, {"variant": "PVQH", "enrichment ratio": "≤ 0.25"}, {"variant": "ASYF", "enrichment ratio": "≤ 0.25"}, {"variant": "TIVF", "enrichment ratio": "≤ 0.25"}, {"variant": "YARC", "enrichment ratio": "≤ 0.25"}, {"variant": "MNHI", "enrichment ratio": "≤ 0.25"}, {"variant": "FDTM", "enrichment ratio": "≤ 0.25"}, {"variant": "YYFT", "enrichment ratio": "≤ 0.25"}, {"variant": "PNFS", "enrichment ratio": "≤ 0.25"}, {"variant": "AKFW", "enrichment ratio": "≤ 0.25"}, {"variant": "AHEH", "enrichment ratio": "≤ 0.25"}, {"variant": "TTGN", "enrichment ratio": 21.9}, {"variant": "KFFI", "enrichment ratio": "≤ 0.25"}, {"variant": "QMPQ", "enrichment ratio": "≤ 0.25"}, {"variant": "VSVP", "enrichment ratio": "≤ 0.25"}, {"variant": "PHCV", "enrichment ratio": "≤ 0.25"}, {"variant": "FVLS", "enrichment ratio": 0.344}, {"variant": "WRFA", "enrichment ratio": "≤ 0.25"}, {"variant": "FFPG", "enrichment ratio": "≤ 0.25"}, {"variant": "ITAI", "enrichment ratio": "≤ 0.25"}, {"variant": "VCHL", "enrichment ratio": "≤ 0.25"}, {"variant": "YMHA", "enrichment ratio": "≤ 0.25"}, {"variant": "WFAS", "enrichment ratio": "≤ 0.25"}, {"variant": "DHKW", "enrichment ratio": "≤ 0.25"}, {"variant": "MCRV", "enrichment ratio": "≤ 0.25"}, {"variant": "QDWL", "enrichment ratio": "≤ 0.25"}, {"variant": "LQYG", "enrichment ratio": "≤ 0.25"}, {"variant": "RRVK", "enrichment ratio": "≤ 0.25"}, {"variant": "TMKR", "enrichment ratio": "≤ 0.25"}, {"variant": "GWDS", "enrichment ratio": "≤ 0.25"}, {"variant": "ERSC", "enrichment ratio": "≤ 0.25"}, {"variant": "IMKF", "enrichment ratio": "≤ 0.25"}, {"variant": "YWEV", "enrichment ratio": "≤ 0.25"}, {"variant": "YYLP", "enrichment ratio": "≤ 0.25"}, {"variant": "DMRA", "enrichment ratio": "≤ 0.25"}, {"variant": "LEHV", "enrichment ratio": "≤ 0.25"}, {"variant": "MVLI", "enrichment ratio": 1.96}, {"variant": "ASCG", "enrichment ratio": 18.9}, {"variant": "YPFS", "enrichment ratio": "≤ 0.25"}, {"variant": "ERRE", "enrichment ratio": "≤ 0.25"}, {"variant": "RVCS", "enrichment ratio": "≤ 0.25"}, {"variant": "DPTN", "enrichment ratio": "≤ 0.25"}, {"variant": "GPAD", "enrichment ratio": "≤ 0.25"}, {"variant": "ENHR", "enrichment ratio": "≤ 0.25"}, {"variant": "PFLC", "enrichment ratio": "≤ 0.25"}, {"variant": "MFII", "enrichment ratio": "≤ 0.25"}, {"variant": "HQQH", "enrichment ratio": "≤ 0.25"}, {"variant": "IKKC", "enrichment ratio": "≤ 0.25"}, {"variant": "DDSM", "enrichment ratio": "≤ 0.25"}, {"variant": "HQRR", "enrichment ratio": "≤ 0.25"}, {"variant": "FQLG", "enrichment ratio": 16.7}, {"variant": "YQSI", "enrichment ratio": "≤ 0.25"}]}]}
